Values joined by “and” are separate entries in the source; they are usually repeats but may differ in a detail not shown here. Identical values can stand only once. About 17,000 (4.4%) of roughly 390,000 compounds were called active. Inconclusive means that the source gave no clear call. Such entries were picked first, then a sample of the others. The call rests on the fitted dose curve; in most records, active means well fitted inhibition curve with a large enough effect; inconclusive means small, poorly fitted or top-dose-only effect; inactive means no such curve, though single readings can be large or run the other way. A potency beside an inconclusive call is a rough fit, not a confirmed value.
Target: Lysine-specific demethylase 4A (Homo sapiens) (UniProt O75164)
Assay: qHTS Assay for Inhibitors of JMJD2A-Tudor Domain; further: nearly all actives have a fitted effect of over 50% in size
Settings: AlphaScreen JMJD2A-Tudor / H3K4me3 peptide binding; series mostly up to 114 µM
Potency means the concentration at half of the fitted maximal effect; tags describe the fitted curve by direction and shape.

Chain of UniProt O75164 (O75164 whole entry, looked up, the tested form may be a part): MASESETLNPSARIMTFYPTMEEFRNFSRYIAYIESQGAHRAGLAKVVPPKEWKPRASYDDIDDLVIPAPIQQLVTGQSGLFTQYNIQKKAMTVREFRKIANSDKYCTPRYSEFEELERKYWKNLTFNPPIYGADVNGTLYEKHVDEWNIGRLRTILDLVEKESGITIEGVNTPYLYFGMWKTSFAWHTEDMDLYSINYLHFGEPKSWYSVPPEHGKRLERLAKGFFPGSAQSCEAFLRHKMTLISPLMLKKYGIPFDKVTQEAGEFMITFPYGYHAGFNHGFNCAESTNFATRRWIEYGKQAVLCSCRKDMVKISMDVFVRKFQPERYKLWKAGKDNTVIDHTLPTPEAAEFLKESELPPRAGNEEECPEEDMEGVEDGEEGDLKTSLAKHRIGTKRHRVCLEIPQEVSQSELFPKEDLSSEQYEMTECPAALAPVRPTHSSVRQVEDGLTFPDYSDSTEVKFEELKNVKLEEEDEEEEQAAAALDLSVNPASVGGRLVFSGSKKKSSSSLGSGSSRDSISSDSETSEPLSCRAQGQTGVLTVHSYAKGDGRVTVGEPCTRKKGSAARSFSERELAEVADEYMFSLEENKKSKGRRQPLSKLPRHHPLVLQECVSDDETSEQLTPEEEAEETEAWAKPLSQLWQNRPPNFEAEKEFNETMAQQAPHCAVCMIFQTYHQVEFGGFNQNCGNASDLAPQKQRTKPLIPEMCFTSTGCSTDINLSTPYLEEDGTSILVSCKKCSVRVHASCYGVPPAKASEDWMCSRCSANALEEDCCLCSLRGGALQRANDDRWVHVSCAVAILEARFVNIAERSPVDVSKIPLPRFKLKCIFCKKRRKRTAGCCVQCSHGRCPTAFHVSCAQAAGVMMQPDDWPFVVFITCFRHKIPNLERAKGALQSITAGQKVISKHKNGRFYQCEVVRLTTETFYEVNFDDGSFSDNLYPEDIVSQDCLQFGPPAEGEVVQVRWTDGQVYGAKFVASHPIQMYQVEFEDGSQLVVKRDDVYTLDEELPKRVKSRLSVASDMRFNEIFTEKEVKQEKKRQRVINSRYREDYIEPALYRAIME

Compound | Potency
COCC(C)NCc1ccc(OC)c(Br)c1 (centres undefined) | active: 17.8 µM
O=[N+]([O-])c1cc(-n2cnnn2)ccc1N1CCC(Cc2ccccc2)CC1 | active: 10 µM
Cc1ccc(S(=O)(=O)N2CCOCC2)cc1NC(=O)COC(=O)COc1ccccc1[N+](=O)[O-] | inactive
CN(C)S(=O)(=O)n1cc(/C=C(\NC(=O)c2ccccc2)C(=O)NCCCn2ccnc2)c2ccccc21 | inconclusive: 50.1 µM [inhibitor, partial curve] and inconclusive: 39.8 µM [inhibitor, partial curve]
CCc1ccc(OCCCC(=O)Nc2ccc(S(=O)(=O)Nc3cc(C)nc(C)n3)cc2)cc1 | inconclusive: 35.5 µM [inhibitor, partial curve]
COc1ccc(Cl)c(Cn2c(NCc3ccco3)nc3c2c(=O)n(C)c(=O)n3C)c1 | inconclusive: 31.6 µM [inhibitor, partial curve]
CCOC(=O)N1CCC(NC(=O)c2ccc3c(c2)N(C)CCS3)CC1 | inconclusive: 79.4 µM [inhibitor, partial curve]
Cn1cnnc1SCC(=O)Nc1ccc2ccccc2c1 | inactive
COc1cccc(/C=C2\SC(=S)N(CCCC(=O)Nc3ccc(C(=O)O)cc3)C2=O)c1 | inconclusive: 50.1 µM [inhibitor, partial curve]
Cc1ccc(N(C)S(=O)(=O)c2nnc(NC(=O)C3CCCCC3)s2)cc1 | inactive
CCOc1ccc2nc(N=NC3=C(O)CC(C)(C)CC3=O)sc2c1 | inconclusive: 31.6 µM [inhibitor, partial curve]
CN(C)/N=C/c1ccc([N+](=O)[O-])cc1[N+](=O)[O-] | inconclusive: 14.1 µM [inhibitor, partial curve]
COc1ccc(N2CCC(CNC(=S)Nc3ccc(C)cc3C)C2)cc1 (centres undefined) | active: 28.2 µM
C=CCNC(=O)C1CC(=O)N(c2ccc(OCC(=O)Nc3ccc(Cl)cc3)cc2)C1 (centres undefined) | active: 70.8 µM
CCn1c(SCC(=O)N/N=C/C=C/c2ccco2)nnc1-c1ccccc1 | inconclusive: 70.8 µM [inhibitor, single point]
Cc1cc[n+](CCC(=O)O)c2ccccc12 | inconclusive: 89.1 µM [inhibitor, single point]
Cc1ccc2scc(N3CCN(c4ccc(F)cc4)CC3)c(=O)c2c1 | inconclusive: 15.8 µM [inhibitor, full curve]
COc1ccccc1C(=O)NC(=S)/C=C1/N(C)c2ccccc2C1(C)C | active: 15.8 µM
O=C(O)c1ccc(Nc2nc(-c3cc4ccccc4oc3=O)cs2)cc1O | active: 31.6 µM

Source: PubChem BioAssay AID504339 (National Center for Advancing Translational Sciences (NCATS), 2011)
